Some of the results follow. These are further read-outs of the screen, such as a control signal, another cell line or another target. No call is given for them. The list favours compounds with an active or inconclusive main result.
Assay: qHTS Assay for Lipid Storage Modulators (AID 1519)
Settings: Drosophila S3 cells, BODIPY lipid droplet/cell ratio, laser cytometry; measured here: lipid channel max response; cells loaded with oleic acid
In short: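 Cells seeded at 5,000 per well were treated with compounds over a concentration series and loaded with oleic acid (400 uM, as added). Lipid droplet fluorescence (488 nm excitation, 500-530 nm channel) was read by laser-scanning cytometry and normalized to 20 uM Triacsin C.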
`c1ccc(Nc2ncnc3ccc(-c4ccoc4)cc23)cc1` showed a max response of 19.2%. Work on `Cc1noc(C)c1C(=O)N1CCC[C@@]2(CCN(Cc3nccs3)C2)C1` yielded a max response of 35.5%. Molecule `COc1ccc(NC(=O)N2CCC3(CC2)CCN(C(=O)c2ccco2)CC3)cc1` has a max response of 24.4%. `O=C(c1ccncc1)N1CCC2(CC1)CCN(c1ncccn1)CC2` gave a max response of 30.7%. Work on `Cc1nc2cncnc2n(Cc2ccc(F)cc2)c1=O` yielded a max response of 32.5%. Molecule `CN1CCN(c2ncc3nc(-c4ccccc4)c(=O)n(Cc4ccc(F)cc4)c3n2)CC1` has a max response of 1.11%. Work on `CN(C)c1ncc2nc(-c3cc(F)cc(F)c3)c(=O)n(Cc3cccs3)c2n1` yielded a max response of 20.9%. Work on `O=c1c(CCc2ccccc2)nc2cncnc2n1Cc1ccccc1` yielded a max response of 20.7%. `CCN(CC)CCOC(=O)c1ccc(N)cc1` showed a max response of 37.8%. Molecule `CCNc1ncc2nc(-c3ccccc3)c(=O)n(C)c2n1` has a max response of -57.6%. In the case of `O=C1C=CC2=C3c4cc(O)c(O)cc4C[C@]3(O)COC2=C1`, the max response is reported as -40.8%. In the case of `COCCn1c(=O)c(-c2cccc(C#N)c2)nc2cnc(N3CCOCC3)nc21`, the max response is reported as 29.6%. Work on `COc1cc2c(cc1OC)-c1cc3ccc(OC)c(OC)c3c[n+]1CC2` yielded a max response of 40.4%. With `c1cncc(-c2ccc3ncnc(N4CCNCC4)c3c2)c1` the max response was 22.3%. `COc1cccc(Nc2ncc3nc(-c4cc(F)cc(F)c4)c(=O)n(C[C@H]4CCCO4)c3n2)c1` gave a max response of -58.2%. Work on `CS(C)(=O)=O` yielded a max response of 42.9%. Work on `O=C(NCCO[N+](=O)[O-])c1cccnc1` yielded a max response of 26.5%. Molecule `CNC1C(O)C(O[C@H]2C(O)[C@@H](OC3OC(CN)=CCC3N)[C@H](N)C[C@@H]2N)OC[C@]1(C)O` (stereo not given in full) has a max response of 45.2%. `CC(=O)N1CCC2(CCCN(c3ccc(-c4ccccc4)cc3)C2)CC1` gave a max response of -1.98%. In the case of `COCCn1c(=O)c(-c2ccccc2)nc2cnc(Oc3ccccc3)nc21`, the max response is reported as 5.24%. Molecule `COc1ccc([C@@H]2CC(=O)c3c(O)cc(O)cc3O2)cc1O` has a max response of 32.1%. In the case of `CC(=O)N1CCC2(CCCN(c3ncccn3)C2)CC1`, the max response is reported as 16.3%. Work on `CCNc1ncc2nc(-c3ccc(Cl)cc3)c(=O)n(Cc3ccc(F)cc3)c2n1` yielded a max response of 18%. Molecule `COCCn1c(=O)c(-c2cccs2)nc2cnc(OC)nc21` has a max response of -2.85%. `CCCCCCCCCCCCCCC[C@@H](O)[C@@H](N)CO` showed a max response of -49.3%. `N#Cc1ccc(CN2CCC3(CC2)CCN(C(=O)c2cnccn2)CC3)cc1` gave a max response of 20.7%. With `Fc1ccc(Nc2ncnc3ccc(-c4ccoc4)cc23)cc1` the max response was 28.5%. Molecule `Cc1cccc(CNc2cc(-c3cccc(C#N)c3)ncn2)c1` has a max response of -37.5%. For `COc1ccc(NC(=O)N2CCCC3(CCN(C(=O)c4cccn4C)CC3)C2)cc1`, the max response was 31.4%. `O=C1CC(c2ccc(O)cc2)Oc2ccccc21` (stereo not given) gave a max response of -6.33%. Molecule `COc1ccc(-n2c(=O)c(C)nc3cnc(Nc4ccccc4)nc32)cc1` has a max response of 11.8%. `CN(C)C(=O)c1ccc(-c2ccc3ncnc(NCc4ccccc4)c3c2)cc1` gave a max response of 22.8%. In the case of `N#Cc1ccc(CN2CC3(CCN(C(=O)c4cc(C(F)(F)F)cc(C(F)(F)F)c4)CC3)C2)cc1`, the max response is reported as -50.6%. In the case of `CC(=O)OCC1OC(Oc2cc(OC(C)=O)c3c(=O)cc(-c4ccc(OC(C)=O)c(OC(C)=O)c4)oc3c2)C(OC(C)=O)C(OC(C)=O)C1OC(C)=O` (stereo not given), the max response is reported as -47.7%. `C[C@]12CCC3c4ccc(O)cc4CCC3C1CCC2OC(=O)CCC1CCCC1` (stereo not given in full) showed a max response of -46.8%. Work on `O=c1cnc2cnc(Oc3ccccc3)nc2n1C1CC1` yielded a max response of 31.7%. `C=C1C(=O)OC2C[C@@]3(C)CCCC(C)C3=CC12` (stereo not given in full) gave a max response of -24.4%. Molecule `CN1CCN(c2nc(-c3ccc(N(C)C)cc3)nc3ccccc23)CC1` has a max response of 30.1%. `COc1cccc(-c2cc(=O)c3cc(O)ccc3o2)c1` gave a max response of 123%. For `COc1ccc(C(=O)N2CCC3(CCN(Cc4cc(C(F)(F)F)cc(C(F)(F)F)c4)CC3)CC2)cc1`, the max response was 17.8%.

— PubChem BioAssay (NCATS)
